# Experimental data reported in PubChem BioAssay AID504937 (National Center for Advancing Translational Sciences (NCATS), 2011).
# Hit rate of the full screen: of about 340,000 compounds, about 20 (0.006%) were called active. The shares of active, inactive and inconclusive entries below differ from those in the screen. The call rests on the fitted dose curve; in most records, active means well fitted inhibition curve with a large enough effect; inconclusive means small, poorly fitted or top-dose-only effect; inactive means no such curve, though single readings can be large or run the other way. Where the call is inconclusive, the potency comes from a doubtful curve fit.
# Biological target: Sphingomyelin phosphodiesterase (Homo sapiens) (UniProt P17405)
# Test: Inhibitors of Secretory Acid Sphingomyelinase (S-ASM): qHTS
# Details: placental ASM, HMU-PC fluorogenic substrate (series up to 57.5 µM), 60 min
# In short: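 Fluorogenic HMU-PC substrate (9 uM final) is turned over by placental ASM in 60 min at 37 C after a 10 min compound preincubation. Reaction ended by alkaline stop (pH 10), with fluorescence read at 386/447 nm.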
# Potency means the concentration at half of the fitted maximal effect; tags describe the fitted curve by direction and shape.
# Sequence of UniProt P17405 (P17405 whole entry, looked up): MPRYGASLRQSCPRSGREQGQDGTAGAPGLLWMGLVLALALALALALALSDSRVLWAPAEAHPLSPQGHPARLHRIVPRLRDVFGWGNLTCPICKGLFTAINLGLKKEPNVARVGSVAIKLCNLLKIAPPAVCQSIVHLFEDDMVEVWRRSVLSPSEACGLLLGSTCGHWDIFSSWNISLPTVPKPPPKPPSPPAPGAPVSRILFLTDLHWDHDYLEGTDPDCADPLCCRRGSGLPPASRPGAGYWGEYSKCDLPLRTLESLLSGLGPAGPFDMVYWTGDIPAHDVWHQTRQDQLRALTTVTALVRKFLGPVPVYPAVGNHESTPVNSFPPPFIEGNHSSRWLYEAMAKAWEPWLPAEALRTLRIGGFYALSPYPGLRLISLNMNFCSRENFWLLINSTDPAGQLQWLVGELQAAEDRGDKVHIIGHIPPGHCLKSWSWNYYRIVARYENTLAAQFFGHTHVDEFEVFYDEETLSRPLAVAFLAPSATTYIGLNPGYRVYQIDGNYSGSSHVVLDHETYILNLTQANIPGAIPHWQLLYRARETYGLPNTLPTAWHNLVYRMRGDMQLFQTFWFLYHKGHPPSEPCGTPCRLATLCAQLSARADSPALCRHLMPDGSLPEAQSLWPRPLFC
row,SMILES,Potency
1,Cc1ccccc1NC(=O)CSc1ccsc1[N+](=O)[O-],"inconclusive: 178 µM [inhibitor, partial curve, poor fit]"
2,CCS(=O)(=O)C1=NSC2=NC(=O)/C(=C\c3ccc(OC(=O)c4ccco4)cc3)C(=N)N21,"inconclusive: 10 µM [inhibitor, partial curve, poor fit]"
3,CCc1ccc(OCCNC(=O)c2ccc(S(=O)(=O)N(C)C)cc2)cc1,"inconclusive: 316 µM [inhibitor, partial curve, poor fit]"
4,CCOC(=O)c1sc(NC(=O)COC(=O)Cn2cnc3ccccc32)c(C(=O)OCC)c1C,"inconclusive: 178 µM [inhibitor, partial curve, poor fit]"
5,CCSc1nsc(NC(=O)Nc2cccc(C(C)=O)c2)n1,"inconclusive: 112 µM [inhibitor, partial curve, poor fit]"
6,CC1=Nc2ccccc2/C1=C/c1sc(=N)n(-c2nccs2)c1O,"inconclusive: 112 µM [inhibitor, partial curve, poor fit]"
7,CC(=O)NC1C(=O)N=C(SCC(=O)Nc2ccc(C(F)(F)F)cc2Cl)NC1=O (stereo not given),inactive
8,COCCn1nnnc1C(c1ccc(OC)cc1OC)N1CCN(c2ccccc2)CC1 (stereo not given),inactive
9,CCOc1ccc(NC(=S)/C(=C(\[O-])c2ccc(C)c([N+](=O)[O-])c2)[n+]2ccccc2)cc1,inactive
10,COc1ccc(-c2noc(N(C)CC(=O)Nc3cccc(C(F)(F)F)c3)n2)cc1,"inconclusive: 79.4 µM [inhibitor, single point]"
11,N#Cc1nc(-c2ccccc2Cl)oc1NCC1CCCO1 (stereo not given),inactive
12,Cn1c(=O)c2c(-c3ccccc3)n(C3CCCCC3)cc2n(C)c1=O,"inconclusive: 70.8 µM [inhibitor, partial curve, poor fit]"
13,CC(C)(C)c1ccc(C(=O)NCCC(=O)Nc2cc(Cl)ccc2N2CCOCC2)cc1,"inconclusive: 50.1 µM [inhibitor, single point]"
14,CCOc1ccc(-n2cc(C(=O)Nc3cccc(Cl)c3)c3cc(OC)c(OC)cc3c2=O)cc1,"inconclusive: 79.4 µM [inhibitor, partial curve]"
15,CCOC(=O)c1c(NC(=O)CSc2nc3ccccc3s2)sc(C)c1C,"inconclusive: 447 µM [inhibitor, partial curve, poor fit]"
16,CCCCc1ccc(-c2csc(/C(C#N)=C\c3ccc(C)o3)n2)cc1,"inconclusive: 316 µM [inhibitor, partial curve, poor fit]"
17,Cc1ccc(NC(=O)c2ccccc2)cc1,inactive
18,CCn1c(SCC(=O)Nc2cc3oc4ccccc4c3cc2OC)nnc1-c1cccs1,"inconclusive: 2510 µM [inhibitor, partial curve, poor fit]"
19,CCCc1cc(=O)oc2c3c(c4c(c12)OC(C)(C)C=C4)OC(C)C(C)C3O (stereo not given),"inconclusive: 89.1 µM [inhibitor, single point]"
20,CCn1c(SCc2nc3ccccc3c(=O)[nH]2)nc2ccccc2c1=O,inactive

row,SMILES,Potency
1,O=C(CSc1nc(Nc2ccccc2)nc(N2CCOCC2)n1)Nc1ccc([N+](=O)[O-])cc1,"inconclusive: 141 µM [inhibitor, partial curve]"
2,CCc1ccc([C@@H]2CC=C(C(=O)O)[C@H](c3ccc(C)cc3)N2S(=O)(=O)c2ccc(C)cc2)cc1,"inconclusive: 126 µM [inhibitor, partial curve, poor fit]"
3,CCCn1c2ccccc2c2cnn(CC(=O)NCCOC)c(=O)c21,inactive
4,COc1ccc(C(=O)Nc2ccc(N3CCOCC3)cc2)cc1S(=O)(=O)N1CCOCC1,inactive
5,COc1cc(N=Nc2ccc3ccccc3c2)ccc1O,"inconclusive: 224 µM [inhibitor, partial curve, poor fit]"
6,COc1ccc(CNc2nc(NCc3ccc(OC)cc3)c3ncn(C4CCCC4)c3n2)cc1,"inconclusive: 251 µM [inhibitor, partial curve, poor fit]"
7,COc1cc(/C=C2\SC(=S)N(Nc3ccccc3)C2=O)cc(OC)c1OC,"inconclusive: 70.8 µM [inhibitor, partial curve, poor fit]"
8,CN(C)C(=O)CCc1ccc2c3c([nH]c2c1)[C@]1(CCC2CCCC2)[C@@H](C(=O)N2CCOCC2)C[C@H](CC(=O)NCCC2=CCCCC2)C(=O)N1CC3,inactive
9,CCC(=NCCc1c(C)[nH]c2ccc(C)cc12)C1=C(O)CC(c2ccccc2)CC1=O (stereo not given),"inconclusive: 112 µM [inhibitor, partial curve, poor fit]"
10,CCCCCn1c(CN2CCCCC2C)nc2c1c(=O)n(C)c(=O)n2C (stereo not given),inactive
11,O=C(O)c1cccc(NC2=C(n3nnc4ccccc43)C(=O)c3ccccc3C2=O)c1,inactive
12,Cc1cccc(Sc2nc(-c3ccccc3)ccc2C#N)c1,"inconclusive: 100 µM [inhibitor, partial curve, poor fit]"
13,Cc1ccc2c(c1)N(C(=O)CSc1nncn1C)C(C)(C)c1ssc(=S)c1-2,"inconclusive: 282 µM [inhibitor, partial curve, poor fit]"
14,CCCN(CC(=O)Nc1cccc(Br)c1)CC(=O)Nc1ccc(F)c(F)c1F,"inconclusive: 89.1 µM [inhibitor, single point]"
15,CCCOc1ccc(C(=O)NNC(=S)NC(=O)c2cc(-c3ccc(Cl)cc3)nc3ccccc23)cc1,inactive
16,Cc1ccc2nc(Nc3ccc(C)c(C)c3)c3nncn3c2c1,"inconclusive: 251 µM [inhibitor, partial curve, poor fit]"
17,CC(C)CC(COCc1ccc(F)cc1)N1CCN(C(=O)c2cccc(C(F)(F)F)c2)CCC1=O (stereo not given),inactive
18,COc1cc(/C=C2\SC(=S)N(NC(=O)c3cccc(O)c3)C2=O)ccc1O,"inconclusive: 79.4 µM [inhibitor, single point]"
19,O=C(NC(CSCc1ccccc1)C(=O)N/N=C/c1ccc(O)cc1O)c1ccc([N+](=O)[O-])cc1 (stereo not given),"inconclusive: 100 µM [inhibitor, partial curve, poor fit]"
20,O=C(Nc1ccc(Oc2ccccc2)cc1)C1CCN(c2c3c(nc4ncnn24)CCC3)CC1,"inconclusive: 112 µM [inhibitor, partial curve, poor fit]"
